From the RNAGym collection of RNA variant scans (doi:10.7554/elife.90254)
Read counts are not given, so values of variants with three or more changes are uncertain.

B1: LINE1-mini (parent)
chain: GGCAGAGCUCAACACAGCGUGGCAAAGUGGCUGUGGCUAGACUGCC

Variants of: B1
Assay: self-cleavage, relative activity (ratio to wild type); higher = more cleavage; in vitro, sequencing; the parent is a self-cleaving ribozyme

Q: Which self-cleavage does the source give for GGCCGAGCUCGACACGGCGUGGCAAAGUGGAAGUGUCUAGACUGCC [A4C A11G A16G C31A U32A G36U] here?
A: 0

Q: With GGCAGAGCUCAUUACAGCUUGGCAAAGUGGCUGUUGCUAGAAUGCC [A12U C13U G19U G35U C42A] as the variant, how does the self-cleavage read?
A: 0.03

Q: With GGCAGAGCUCAACACAGCUUGGCAACGUGGUUGUGGCUAGACUGCC [G19U A26C C31U] as the variant, how does the self-cleavage read?
A: 0.52

Q: With GGCAGAGCUCAACUCAGCGUGGCAAAGUGGCUGUGGCUUGUCUGCC [A14U A39U A41U] as the variant, how does the self-cleavage read?
A: 0.02

Q: With GGCAGAGGUCAACACAGCGUGGCAAAGUGGCCGUGGCUAUACUGCC [C8G U32C G40U] as the variant, how does the self-cleavage read?
A: 0.04

Q: For GGCAGAGCUCAACACAGCGGGGCAAAGUGGCUAUGGCUGAACUGCC [U20G G33A A39G G40A], which self-cleavage is on record?
A: 0.08

Q: Which self-cleavage does the source give for GGCAGAGCUUAACACAGCGUGGCAAAGCGGCUGUGGCUCGAGUUCC [C10U U28C A39C C42G G44U] here?
A: 0.01

Q: For GGCAGCGCUUAACACAGCGUGGCAAAGUGGCUGUGACUAGACUGCC [A6C C10U G36A], which self-cleavage is on record?
A: 0.01

Q: With GGCAGAGCUCAACACAGCGUGACAAAGGGACUGUGGUUAGACUGCC [G22A U28G G30A C37U] as the variant, how does the self-cleavage read?
A: 0.09

Q: Which self-cleavage does the source give for GGCAGAGCUCAACACAGCGUGGAGAAGUGGCUGUGGCUAGUCUGCC [C23A A24G A41U] here?
A: 0.33

Q: Which self-cleavage does the source give for GGCAGAGCUUAAUACAGCAUGGCAAAGUGGCUCUGGCCAAACGGCC [C10U C13U G19A G33C U38C G40A U43G] here?
A: 0.01

Q: For GGCAGAGCUCAACACAUGGUGGCAAAGUGGCUGUGACUAGACUGGC [G17U C18G G36A C45G], which self-cleavage is on record?
A: 0.05

Q: Which self-cleavage does the source give for GGCAGAGCUCAACACAGCGUGGCAAAGUGCCAGGGACUAGACUGCC [G30C U32A U34G G36A] here?
A: 0.03

Q: With GGCAAAGCCCAACACAGCGUGGCAAAGUGGCUGAAGCUAGACUGCC [G5A U9C U34A G35A] as the variant, how does the self-cleavage read?
A: 0.03

Q: With GGCAGAGCUCAACGCAGCGUGGCAAAGUGGCUUUGGCUACACUGCC [A14G G33U G40C] as the variant, how does the self-cleavage read?
A: 0

Q: With GGCAGAGCCCACCACAGCGUGGCAUAGUGGCUGUGGCUAGACUGCC [U9C A12C A25U] as the variant, how does the self-cleavage read?
A: 0.01

Q: With GGUAGAGCUCAACACAGCGUGGCAAAGUGGUUGUGGCUAGACUCCC [C3U C31U G44C] as the variant, how does the self-cleavage read?
A: 0.02

Q: For GGAAGAGCUCAACACAGCGUGACAAAGUGGCUGUGGCGAGACUGGC [C3A G22A U38G C45G], which self-cleavage is on record?
A: 0.27

Q: With GGCAGAGCUUAACACAGAGUGGCACAGUUGCUGUGGCUAGAUUGCC [C10U C18A A25C G29U C42U] as the variant, how does the self-cleavage read?
A: 0.29

Q: For UUCAGAGCUCAACACACCGUGGCAGAGUGGCAGUGGCUAGAUUGCC [G1U G2U G17C A25G U32A C42U], which self-cleavage is on record?
A: 0

Q: Which self-cleavage does the source give for GGCGGAGCUCAACACAGCGUGGAAAAGUGACUGUGGCUAGACUGCC [A4G C23A G30A] here?
A: 1.68

Q: Which self-cleavage does the source give for GCCAGGGCUAAAUCCAGCGUGGCAAAUUGGCUGUGGCUAGACUGCC [G2C A6G C10A C13U A14C G27U] here?
A: 0.03

Q: Which self-cleavage does the source give for GGCAUAGCUCAACUCAGCGUGGCAAAGUGCCUGUGGCUAGACUGCC [G5U A14U G30C] here?
A: 0.02

Q: Which self-cleavage does the source give for GGCAUAGCUCAACACAGAGUGGCAAAAUUGUUGUGGCUAGACUGCC [G5U C18A G27A G29U C31U] here?
A: 0.07

Q: For GGCAGAGCUCAACAAAGCGAGGCAAAGUGUAAGUGGCUAGACUGGC [C15A U20A G30U C31A U32A C45G], which self-cleavage is on record?
A: 0.07

Q: For GGCAGAGCGCAACACAGCGUGGCAAACUGGCUGUGGCUAGACUGGC [U9G G27C C45G], which self-cleavage is on record?
A: 0.09

Q: Which self-cleavage does the source give for GGAAGAGCUAAACACAGCGUGGCAACGUGGCUGUGGCUAGACUGCC [C3A C10A A26C] here?
A: 0.04

Q: With UUCAGAGCUCAACACAGCGUGGCGAAGUGGCUGCGGCUAGACUGCC [G1U G2U A24G U34C] as the variant, how does the self-cleavage read?
A: 0.02

Q: For GGAUGAGCUCAACACAACGUGACAAAGUGGCUGUGGCUAGACUGCC [C3A A4U G17A G22A], which self-cleavage is on record?
A: 0.05

Q: Which self-cleavage does the source give for GCAAGACCUCAACACAGCGUGGCAAAGUGGCUGUGGCUAGACUGCC [G2C C3A G7C] here?
A: 0.1

Q: For GGUAGACCUCAACACAGCGUGGCAAAGUCGCUGUCGCUAGACUGCC [C3U G7C G29C G35C], which self-cleavage is on record?
A: 0.06

Q: For GGCAGAGCUCAACACAGAGGGGUAAAGUGGCAGUGGCUAGACUGCC [C18A U20G C23U U32A], which self-cleavage is on record?
A: 0.02

Q: For GGUAGAGCUCAACACAGCGUGGCAAAGUGGCUGAGGCUAGACAGCC [C3U U34A U43A], which self-cleavage is on record?
A: 0.05

Q: For GGCUGAGCUAAACACAGCGUGGCGAAGUGGCUGUGGCUAGACUGCC [A4U C10A A24G], which self-cleavage is on record?
A: 0.02

Q: For GGCAGGGUGCUACACAGCGUGGCAAAGUGGCUGAGGCUAGACUGCC [A6G C8U U9G A11U U34A], which self-cleavage is on record?
A: 0.01

Q: For GGCAGAGCCCAACACAGCGUGGCAACGUGCCUGUGUCUUGAAUGCC [U9C A26C G30C G36U A39U C42A], which self-cleavage is on record?
A: 0.01

Q: For GGCAUAGCUCAACACAGCGUGGCAAAGUGGCUAUGGCUAGACUGCU [G5U G33A C46U], which self-cleavage is on record?
A: 0.01

Q: Which self-cleavage does the source give for GGCAGAGCUCAACACAGUGUGGAAAAGUGGUUGUGGAUAGACUGCC [C18U C23A C31U C37A] here?
A: 0.02

Q: With GGCAGAACUCAACACAGCGUCGCAAAGUGGCUGCGGCUAGACUGCC [G7A G21C U34C] as the variant, how does the self-cleavage read?
A: 0.09

Q: Which self-cleavage does the source give for GGCUGAGCUCAACCCAUCGUGGCAAAGUGGCUGUGGCUAGACUGCC [A4U A14C G17U] here?
A: 0.16

Q: For GGCAGCGCUCAACACAGCAUUGCAAAGUGGUUGUGGGUAGACUGCC [A6C G19A G21U C31U C37G], which self-cleavage is on record?
A: 0.01

Q: With GGCAGAGCUCAACACAUCGGGGCAAUGUGCCUGUGGCUAGACUGCC [G17U U20G A26U G30C] as the variant, how does the self-cleavage read?
A: 0.38

Q: Which self-cleavage does the source give for GGCAGAGCUAAACACAACAUGGCAAAGUGGCUGUUGCUAGACUGCC [C10A G17A G19A G35U] here?
A: 0.02

Q: For GGCAGAACUCAACACUGCGUGGCCAAGUGGCUGUGGCUAGACUGCC [G7A A16U A24C], which self-cleavage is on record?
A: 0.18

Q: Which self-cleavage does the source give for CGCAGAGCCCAACACAUGGUGGCAAAGUGGCUGUUACUAGACUGCC [G1C U9C G17U C18G G35U G36A] here?
A: 0

Q: Which self-cleavage does the source give for GGCAGAGUUCAACACAGCAUGGCAACGUGGCUGUGGAUAGACUGCC [C8U G19A A26C C37A] here?
A: 0.03

Q: For GGCAGAGUUCAACACAGCGUGGCAAAGAGAUUGUGGCUAGACUGCC [C8U U28A G30A C31U], which self-cleavage is on record?
A: 1.06

Q: With GGUAGAGCCCAACACAGCGUGGCAAAGUGGCUGUGCCUAGACUGCC [C3U U9C G36C] as the variant, how does the self-cleavage read?
A: 0.03

Q: For GGCAGAGCUCAACAAAGCGUGGAAGAGUGGCCGUGGCUAGACUGGC [C15A C23A A25G U32C C45G], which self-cleavage is on record?
A: 0.01

Q: With GGCAGAGCUCAAUACACCGUGGCAAAGAGGCUGUGGCUAGAGUGCC [C13U G17C U28A C42G] as the variant, how does the self-cleavage read?
A: 0.02

Q: Which self-cleavage does the source give for GGGAGAGCUCAACACAGCGUACCAAAGUGGCUGUGGAUAGACUCCC [C3G G21A G22C C37A G44C] here?
A: 0.01

Q: Which self-cleavage does the source give for GGCAUAGCUCAACACAGCGUGGCAAAUUGGCUGGGGCUAGAGUGCC [G5U G27U U34G C42G] here?
A: 0.03

Q: Which self-cleavage does the source give for GGCAGAGCGCAACAUAACGUAGAAAAGUGGCUGUGGCUUGACUGCC [U9G C15U G17A G21A C23A A39U] here?
A: 0.05

Q: For GGCAGAGCUCAACACACCGUGGCAAAGUGGCUGUGCCUAGAAUGCC [G17C G36C C42A], which self-cleavage is on record?
A: 0.02

Q: With GGCAGCACUCAACACAGUGUGGCAAAGUGUCUGUGGCUACACUGCC [A6C G7A C18U G30U G40C] as the variant, how does the self-cleavage read?
A: 0.05

Q: With GGCAGAGCUCAACACUGCGUGGCAAAGCGGCUGUGGCUAGACUGCG [A16U U28C C46G] as the variant, how does the self-cleavage read?
A: 0.03
